Out of some 110,000 compounds screened, about 230 (0.21%) showed an effect of 50% or more. The list shows a part of the results.
Target: DPAP1 (Plasmodium falciparum, UniProt Q8IIJ9)
Experiment: primary screen, percent inhibition; read by cleavage of a fluorogenic dipeptide substrate; higher = more effect of the substance
Parameters: species or system P. falciparum D10 trophozoite lysates; single well
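Also: 30 min substrate incubation versus DMSO and 10 µM JCP410 controls.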

Sequence of DPAP1 (Q8IIJ9 whole entry, looked up): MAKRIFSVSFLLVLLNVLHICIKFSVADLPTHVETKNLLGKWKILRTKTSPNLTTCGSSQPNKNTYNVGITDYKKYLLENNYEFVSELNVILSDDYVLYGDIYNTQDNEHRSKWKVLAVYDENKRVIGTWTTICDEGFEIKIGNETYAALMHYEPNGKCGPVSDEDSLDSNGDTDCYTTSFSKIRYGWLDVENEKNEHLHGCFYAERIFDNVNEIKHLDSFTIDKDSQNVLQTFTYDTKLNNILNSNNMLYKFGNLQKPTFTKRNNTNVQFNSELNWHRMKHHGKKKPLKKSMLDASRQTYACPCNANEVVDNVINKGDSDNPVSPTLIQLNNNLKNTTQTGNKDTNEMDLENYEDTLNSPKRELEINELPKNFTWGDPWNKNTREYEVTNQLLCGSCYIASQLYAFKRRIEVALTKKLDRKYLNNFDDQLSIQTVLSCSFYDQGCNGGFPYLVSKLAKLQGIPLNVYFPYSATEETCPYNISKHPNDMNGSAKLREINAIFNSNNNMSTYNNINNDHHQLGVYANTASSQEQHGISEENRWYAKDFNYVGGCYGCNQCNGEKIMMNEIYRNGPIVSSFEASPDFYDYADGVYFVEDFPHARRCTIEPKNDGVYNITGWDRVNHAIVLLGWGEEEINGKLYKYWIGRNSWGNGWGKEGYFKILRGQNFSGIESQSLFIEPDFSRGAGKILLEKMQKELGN

| SMILES | % Inhibition @ 10 uM [%] |
| --- | --- |
| COc1ccccc1-c1cc(-c2ccccc2)nc(SC)c1C#N | -0.736 |
| COCCCN1COc2ccc3c(C)cc(=O)oc3c2C1 | -3.36 |
| O=C1CCCN1CC12CC3CC(CC(C3)C1)C2 | -1.3 |
| COc1cccc(C2C=C(c3ccc(C)cc3)Nc3nnnn32)c1OC(F)F (centres unmarked) | 0.0842 |
| CNS(=O)(=O)c1cc(-c2nnc(N3CCOCC3)c3ccccc23)ccc1C | -1.1 |
| O=C(COc1ccc(Cl)cc1)NCc1nnc(SCC(=O)NCCc2ccccc2)o1 | 0.163 |
| COc1ccc(-c2csc(NC(=O)C3CCCCC3C(=O)O)n2)cc1 (centres unmarked) | -2.18 |
| Cc1ccsc1CN1CCN(c2cccc(Cl)c2)CC1 | -7.42 |
| CCOc1cc(NC(=O)c2ccccc2Cl)c(OCC)cc1N | 1.92 |
| CN1CCN(CCCNC(=O)CCCN2C(=O)CSc3ncccc32)CC1 | 4.22 |
| O=C1c2ccccc2C(Nc2cccnc2)N1Cc1ccccc1 (centres unmarked) | -1.08 |
| CCN(CC)C(=S)SCc1nc2ccccc2s1 | -3.92 |
| CCOC(=O)N1CCN(C(=O)CCc2ccc(S(=O)(=O)NC3CCCCC3)cc2)CC1 | 0.163 |
| CCn1c(C(=O)NC(C)c2ccccc2)cc2sc(Cl)cc21 (centres unmarked) | 1.89 |
| Cc1scc(CN2CCN(C(=O)c3ccco3)CC2)c1C | 0.124 |
| COCCNC(=O)CCCN1C(=O)C(c2ccccc2)Oc2cccnc21 (centres unmarked) | -2.1 |
| CCN(CC)CCNC(=O)c1cc2cc3ccc(C)cc3nc2s1 | 0.913 |
| C1CNC(C23CC4CC(CC(C4)C2)C3)=N1 | -0.828 |
| CC(=O)N[C@H]1[C@H](Oc2cccc3ccccc23)O[C@@H]2COC(C)(C)O[C@H]2[C@@H]1O | -3.46 |
| Cc1cc(C)c2c(-n3cccc3)c(C(=O)NC(C)c3ccc4c(c3)OCCO4)sc2n1 (centres unmarked) | 5.42 |
| CCOc1cc2c(cc1/C=C1/NC(=O)N(CC(=O)Nc3ccc(F)cc3)C1=O)OCO2 | -0.303 |
| c1ccc(CCN2CCN(c3ncnc4c3cnn4-c3ccccc3)CC2)cc1 | 1.07 |
| CCN1C(=O)C(F)(CC)C(=O)c2ccccc21 (centres unmarked) | 1.35 |
| CCSc1cc(N2CCOCC2)nc(-c2ccc(Cl)cc2)n1 | 0.361 |
| COc1cccc(C2CC(=O)NC(SCC(=O)Nc3ccccc3C)=C2C#N)c1OC (centres unmarked) | 2.44 |
| N#Cc1ccc(-c2ccccc2)nc1SCCN1CCOCC1 | -1.37 |

| SMILES | % Inhibition @ 10 uM [%] |
| --- | --- |
| Cc1cnc(C)c(N[C@H]2CCCCNC2=O)n1 | -1.2 |
| CC(C)Oc1ccc(C(=O)N(Cc2ccco2)Cc2ccccc2Cl)cc1 | -2.21 |
| CN(C(=O)Cn1nnc2sc3c(c2c1=O)CCC(C(C)(C)C)C3)C1CCCCC1 (centres unmarked) | 2.41 |
| CC(C)C[C@H](NC(=O)OCN1C(=O)c2ccccc2C1=O)C(=O)NCC#N | -3.04 |
| COc1ccccc1C(=O)N1CCN(c2ccccc2F)CC1 | -7.32 |
| O=C(Nc1ccc(Cl)cn1)c1ccccc1-c1ccccc1 | -1.28 |
| COc1ccc(CNC(=O)C2CCCN(S(=O)(=O)N3CCC(C)CC3)C2)c(OC)c1 (centres unmarked) | -1.34 |
| O=C(O)c1ccc(NC(=O)C2CC=CCC2C(=O)O)cc1O (centres unmarked) | -3.78 |
| O=c1c2ccccc2ncn1CCOCCSc1ccc(Cl)cc1 | 1.17 |
| CCOc1cc(Br)c(C(C)NC(=O)c2cccc(OC)c2)cc1OCC (centres unmarked) | 2.17 |
| CCOCC(=O)Nc1ccc(S(=O)(=O)Nc2nccs2)cc1 | 4.11 |
| Cn1c(=O)c2c(nc(Sc3ncnn3CC(=O)NC(C)(C)C)n2C)n(C)c1=O | 16.7 |
| C=Cc1ccc(Cn2c(C)c(CNCCc3ccc(OC)c(OC)c3OC)c(C(=O)O)c2C)cc1 | 8.86 |
| COc1cccc(OC)c1C(=O)Nc1ncccn1 | 6.57 |
| Cc1cccc(NC(=O)CN2C(=O)N/C(=C/c3ccc(-c4ccc(C(=O)O)cc4)o3)C2=O)c1 | 21.2 |
| NC(=O)c1cc(S(=O)(=O)N(Cc2ccco2)CC2CCCO2)cs1 (centres unmarked) | 0.359 |
| CCOC(=O)N1CCN(C(=O)c2ccc3nc(C)sc3c2)CC1 | -1.27 |
| CCc1ccc(CNC(=O)NCc2noc3ccc(C)cc23)cc1 | 2.19 |
| CCc1nnc(NC(=O)NCc2noc3ccccc23)s1 | 11.1 |
| CCOC(=O)C(O)(c1ccc(C)o1)C(F)(F)F (centres unmarked) | -0.239 |
| CCN(CCCNC(=O)C1CCN(C(=O)c2cc3sccc3n2C)CC1)Cc1ccccc1 | 0.137 |
| O=C(CC(Nc1cccc2c1-c1ccccc1C2)c1ccccc1)c1ccccc1 (centres unmarked) | 0.132 |
| COc1cc(/C=C2\S/C(=N/c3ccc(C(=O)O)cc3)N(C)C2=O)cc(OC)c1OC | 4.3 |
| Cc1ccc(O)c(NC(=O)CSc2ccc(Cl)cc2)c1 | 1.87 |
| O=C1c2ccc(Oc3ccc4c(c3)C(=O)N(CCCO)C4=O)cc2C(=O)N1CCCO | -2.16 |
| COc1cc2c(cc1OC)C(c1ccc(Cl)cc1)NC(=O)C2 (centres unmarked) | -4.03 |

| SMILES | % Inhibition @ 10 uM [%] |
| --- | --- |
| COc1cccc(N2CCN(C3CC(=O)N(c4cc(Cl)ccc4C)C3=O)CC2)c1 (centres unmarked) | -5.1 |
| CCc1nnc(NS(=O)(=O)c2ccc(NC(=S)NC(=O)/C=C/c3ccco3)cc2)s1 | 0.0345 |
| COc1cc(CNCc2cccnc2)cc(Br)c1OCC(N)=O | -0.0555 |
| CS(=O)(=O)N(CC(=O)NCc1ccc(Cl)cc1)c1cccc2ccccc12 | -3.38 |
| O=C(NCc1cccnc1)c1ccc(Br)cc1 | -2.22 |
| Cc1nn(Cc2ccccc2)c(C)c1NC(=O)c1cc(-c2ccc(O)cc2)on1 | -1.28 |
| CC1CCN(C(=O)Cn2cnc3c(nnn3-c3ccc(F)cc3)c2=O)CC1 | -2.16 |
| COc1cccc(C2Nc3cccc4cccc(c34)N2)c1OC | -0.305 |
| CCOc1ccc2c(=O)c(Oc3ccccc3CC)coc2c1 | -4.85 |
| CCOC(=O)c1cc(-c2ccc(C)cc2)n(CCC(=O)Nc2ncccc2C)c1C | 1.72 |
| O=C(O)c1cn(-c2ccccc2)nc1-c1ccccc1 | -0.128 |
| Cc1ccc(-c2c(C#N)c(N)nc3c2CCCCC3)c(C)c1 | -2.44 |
| Cc1scc(CN(Cc2ccccc2)C(C)C)c1C | -6.05 |
| CCS(=O)(=O)C1=NN2C(=N)/C(=C\c3ccc(OS(C)(=O)=O)c(Cl)c3)C(=O)N=C2S1 | 0.208 |
| COc1ccc(S(=O)(=O)NCCc2ccc(S(N)(=O)=O)cc2)cc1 | -6.81 |
| CCC(=O)Nc1sc2c(c1C#N)CC(C)(C)NC2(C)C | -0.941 |
| CCOc1ccccc1OCc1nn2c(Cc3ccccc3)nnc2s1 | 10.8 |
| N#CCc1nc2cc(C(=O)O)ccc2[nH]1 | -8.41 |
| COc1ccccc1C(=O)Nc1cc(C)cc(C)n1 | -1.42 |
| N#CCNC(=O)C(CC1CCN(c2nccs2)CC1)NC(=O)c1ccccc1 (centres unmarked) | -6.98 |
| CO/C(O)=C/C1=NC2CCCCC2NC1=O (centres unmarked) | 0.778 |
| CCCCNC(=O)C(CC)n1nc(C)c2sc3ccccc3c2c1=O (centres unmarked) | -2.61 |
| CC(C)(C)C1CCc2c(sc3nc(SCC(N)=O)nc(N)c23)C1 (centres unmarked) | -2.6 |
| Cc1noc(/C=C/N(C)C)c1S(=O)(=O)N1CCCC(C(=O)NCCC2=CCCCC2)C1 (centres unmarked) | 9.33 |
| COc1ccc(S(=O)(=O)Nc2ccc(C)cn2)cc1 | -5.48 |
| Cc1cc(NC(=O)C2CCCN2S(=O)(=O)c2cccc3nsnc23)no1 (centres unmarked) | -2.25 |

| SMILES | % Inhibition @ 10 uM [%] |
| --- | --- |
| CC(C)CS(=O)(=O)c1oc(-c2ccc(F)cc2)nc1S(=O)(=O)c1ccc(F)cc1 | 3.74 |
| COc1ccc(CN2CCCN(C)CC2)cc1OC | -0.261 |
| CCN1CCN(C(=O)c2cc(C)nn2-c2ccccc2)CC1 | -1.89 |
| O=C1c2cccnc2C(=O)N1Cc1ccc(S(=O)(=O)N2CCN(C3CCCCC3)CC2)s1 | -6.11 |
| Cc1s/c(=N\C(=O)c2ccco2)n(C)c1-c1ccccc1 | 0.108 |
| FC(F)Oc1cc(Cl)ccc1C1=CC(c2ccc(Cl)cc2)n2nnnc2N1 (centres unmarked) | -3.23 |
| CCN1CCN(C(=O)c2cc3c(C)nc4ccccc4c3o2)CC1 | 1.62 |
| CCN1CCN(CC(O)COc2ccc(Cl)cc2C)CC1 (centres unmarked) | -4.16 |
| CC(=O)c1cc2c(cc1NC(=O)C(C)Oc1ccccc1)OCO2 (centres unmarked) | -4.49 |
| O=S(=O)(c1ccccc1)c1cnc2ccccc2c1N1CCCCC1 | -0.246 |
| COC(=O)c1cccc2c1-c1ccccc1C2=O | 2.7 |
| Nc1cccc(NC(=O)c2ccccc2Br)c1 | 3.24 |
| CC1(C)CC(=O)C2=C(C1)N(c1ccc(Cl)cc1)C1=C(C2)C(=O)CC(C)(C)C1 | -3.93 |
| COc1ccc(N(CC(=O)Nc2ccccc2Cl)S(=O)(=O)c2ccc(C)cc2)cc1 | -1.95 |
| COc1ccc(C)cc1NC1CCC(c2ccccc2)CC1 (centres unmarked) | 7.8 |
| O=C(COc1ccc2ccccc2c1Br)NC1CCCCC1 | 4.83 |
| Cc1ccc(-c2csc(NC(=O)C3C4C=CC(O4)C3C(=O)O)n2)cc1 (centres unmarked) | 3.04 |
| COc1ccc(-c2nnc(S)n2-c2ccccc2C)cc1OC | 18.2 |
| CCn1c(C(=O)N2CCC(C(=O)NCCc3ccc(S(N)(=O)=O)cc3)CC2)cc2sccc21 | -3.35 |
| C=C(C)CSc1nc2c(c(=O)n(C)c(=O)n2C)n1CC(=C)C | -0.864 |
| Cc1nc2c(c(-c3ccccc3)c1C#N)C(=O)CC(C)(C)C2 | 2.86 |
| CCOC(=O)C1=C(c2ccccc2)N=c2s/c(=C\c3ccco3)c(=O)n2C1c1cccs1 (centres unmarked) | -3.98 |
| COc1ccc(-c2cc(C)no2)cc1S(=O)(=O)N1CCN(CCn2c(C)ccc2C)CC1 | -3.79 |

Source: article PMC6919601, “Identification of Plasmodium dipeptidyl aminopeptidase allosteric inhibitors by high throughput screening” (PLoS ONE, 2019)
